Measurements reported in the supplement of paper PMC5499739.
Whole data set: some 16,000 sequences, median “Z-score” near -0.37, cut for the highest 2% near 3.1. This is one part of the list.

test system: RBM10 RRM1-ZnF-RRM2 (GST-tagged construct); test: RNAcompete 7-mer binding Z-score; higher = stronger binding preference
Procedure: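 RNAcompete: 20 pmol GST-tagged RBM10 RNA-binding constructs were incubated with a designed RNA pool of about 241,000 sequences up to 41 nt (1.5 nmol) on glutathione beads for 30 min at 4 °C and washed. Bound RNAs were identified by microarray hybridisation. Each RNA 7-mer is scored by a one-sided Z-score of its enrichment, computed over probes that contain the 7-mer within longer pool sequences.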

| Sequence | RNAcompete 7-mer binding Z-score |
| --- | --- |
| UAUCGCC | -0.723 |
| AGUGACC | 0.17 |
| CUAUGCA | -0.49 |
| CUAUGGC | -0.395 |
| CACCUAG | -0.333 |
| GUCUGUA | -0.442 |
| CCAAUUA | -0.42 |
| GUAAGCG | 0.971 |
| GCGAUAU | 0.0677 |
| UGUGUGU | 0.0859 |
| GACUGGG | 1.95 |
| UCGGGUG | 1.96 |
| GUUAUGG | 1.45 |
| CAUCCUG | -0.719 |
| GGGAUAA | 3.36 |
| AGUAAGG | 3.47 |
| CUUGCGA | -0.694 |
| UUGAGAC | -0.286 |
| UGAGGGU | 3.92 |
| AUUGUGC | -0.511 |
| UAGGCAU | 0.607 |
| UCGUAGG | 0.669 |
| AAGGACC | 1.56 |
| AUUUCAU | -0.646 |
| CUGCGUA | -0.555 |

| Sequence | RNAcompete 7-mer binding Z-score |
| --- | --- |
| AGGUGUU | 0.873 |
| GUUGGCU | 0.0313 |
| CGCGCCU | -0.872 |
| AUACCCC | -0.595 |
| CGGGCGA | 1.59 |
| GUCACGU | -0.453 |
| UGCGAUU | -0.653 |
| CGAUAAA | -0.191 |
| GUGAUGC | 0.876 |
| UGGGGGU | 3.25 |
| UCUCUUA | -0.821 |
| GAUCACA | -0.326 |
| CAUUACC | -0.668 |
| UCAGUGC | -0.18 |
| GUAUCAA | 0.184 |
| GGACUUA | 0.232 |
| GCACAGU | -0.118 |
| UUAGGCA | 0.592 |
| UUGACCU | -0.839 |
| GUGUCCG | -0.333 |
| CUACGUG | -0.468 |
| UACAAAG | -0.0379 |
| AAACAGC | -0.402 |
| GGAGCUG | 1.5 |
| UUAUUUA | -0.562 |

| Sequence | RNAcompete 7-mer binding Z-score |
| --- | --- |
| CUAGGAA | 0.661 |
| UUCUCUC | -0.777 |
| UGAGUGC | 0.217 |
| GCUGCGG | 1.05 |
| GAAACUC | -0.697 |
| CAACAAG | 0.0641 |
| CUCGCUA | -0.726 |
| GGAUCAG | 1.9 |
| UUCAACG | -0.555 |
| GUCCCGG | 0.199 |
| AUGUCAA | -0.307 |
| AUGGUCC | 0.17 |
| UGAGCUC | -0.562 |
| AUUAUCC | -0.708 |
| ACACUUC | -0.963 |
| CAAUGCA | -0.362 |
| GUAUAGA | 0.927 |
| CAGAUUC | -0.522 |
| AUAAGGG | 3.85 |
| UUUGACC | -0.839 |
| ACAAUCG | -0.173 |
| CGAUGAU | -0.0343 |
| UGGCGUA | 0.778 |
| CUAUCGG | -0.486 |
| CAUCCGA | -0.497 |

| Sequence | RNAcompete 7-mer binding Z-score |
| --- | --- |
| CGAAUGU | -0.333 |
| UAUGAAC | -0.195 |
| GAGUCUG | -0.067 |
| GUUCUGC | -0.748 |
| UACCGUC | -0.664 |
| AAUCUAG | -0.326 |
| GUUCCUA | -0.734 |
| CUGUCCA | -0.734 |
| UGGCGGA | 2.2 |
| GGUUACA | 1.46 |
| ACAUGUU | -0.442 |
| AGUUUAC | -0.57 |
| CAUGUAG | -0.0488 |
| AUCAUCG | -0.588 |
| ACCCUCA | -0.846 |
| CAUCAAU | -0.602 |
| UUCAACC | -0.737 |
| AGCGGGU | 3.01 |
| GGUUAUC | 0.785 |
| AGCAAUG | 0.301 |
| UCGAGAA | 0.0859 |
| AUCAGGG | 2.09 |
| AAUAGCU | -0.417 |
| AUGUCUG | -0.431 |
| CUAGUUU | -0.803 |
